The list shows a part of the results. Rule as the data show it: active = 3.2 or more and inactive = the rest. Most of these values are background signal.
Target: SHP2 C-SH2 domain E139D
Test: enrichment score (SH2-bound / input frequency) (ratio); bacterial display of known human phosphotyrosine sites (pTyr-Var adds point mutants) read by sequencing; higher = stronger binding; tyrosines were phosphorylated by kinases first
Conditions: peptide library: pTyr-Var
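Also: displayed peptides selected on beads carrying the immobilized SH2 domain, with library peptides lacking any tyrosine serving as negative controls.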

Enrichment score, inactive:
LENSTYQFIRV [CRB1_Y760_YF] 1.31
LRTAVYHEILI [CREBBP_Y1450] 1.34
FSGKAYADEER [CRIM1_Y826] 0.674
LFQAKYQIRYR [CRLF1_Y272] 1.37
LFQAKYQIRFR [CRLF1_Y272_YF] 1.3
FAKTQYPDVYA [CRX_Y63] 0.772
FAKTQYPDIYA [CRX_Y63_V66I] 1.35
FAKTQYPDVFA [CRX_Y63_YF] 0.746
TISPFYCQSLF [CRYAA_Y48_R49C_YF] 0.89
TISPFYRQSLF [CRYAA_Y48_YF] 1.04
TWSRSYRSDRL [CRYBB1_Y131_S129R] 0.334
FQVRRYDCDCD [CRYGS_Y21_G18V] 0.696
RRERDYTNLPS [CSF1R_Y923] 0.262
RRDRDYTNLPS [CSF1R_Y923_E920D] 0.339
LQPNNYQFCGG [CSF1R_Y969] 0.735
LQPNNCQFCGG [CSF1R_Y969_Y969C] 0.595
TLNHQYDYTFD [CSNK1A1_Y292] 0.829
TLNHQYDYTFH [CSNK1A1_Y292_D297H] 0.938

Target: SHP2 C-SH2 domain wild-type
Test: as above
Conditions: peptide library: pTyr-Var

Enrichment score, inactive:
LENSTYQFIRV [CRB1_Y760_YF] 1.05
LRTAVYHEILI [CREBBP_Y1450] 2.07
FSGKAYADEER [CRIM1_Y826] 0.615
LFQAKYQIRYR [CRLF1_Y272] 1.28
LFQAKYQIRFR [CRLF1_Y272_YF] 1.23
FAKTQYPDVYA [CRX_Y63] 0.719
FAKTQYPDIYA [CRX_Y63_V66I] 1.14
FAKTQYPDVFA [CRX_Y63_YF] 0.654
TISPFYCQSLF [CRYAA_Y48_R49C_YF] 1.15
TISPFYRQSLF [CRYAA_Y48_YF] 0.598
TWSRSYRSDRL [CRYBB1_Y131_S129R] 0.295
FQVRRYDCDCD [CRYGS_Y21_G18V] 0.712
RRERDYTNLPS [CSF1R_Y923] 0.277
RRDRDYTNLPS [CSF1R_Y923_E920D] 0.303
LQPNNYQFCGG [CSF1R_Y969] 0.802
LQPNNCQFCGG [CSF1R_Y969_Y969C] 0.894
TLNHQYDYTFD [CSNK1A1_Y292] 0.647
TLNHQYDYTFH [CSNK1A1_Y292_D297H] 0.823

Target: SHP2 N-SH2 domain L43F
Test: as above
Conditions: peptide library: pTyr-Var

Enrichment score, inactive:
LENSTYQFIRV [CRB1_Y760_YF] 1.23
LRTAVYHEILI [CREBBP_Y1450] 2.25
FSGKAYADEER [CRIM1_Y826] 0.664
LFQAKYQIRYR [CRLF1_Y272] 1.13
LFQAKYQIRFR [CRLF1_Y272_YF] 1.29
FAKTQYPDVYA [CRX_Y63] 1.01
FAKTQYPDIYA [CRX_Y63_V66I] 0.891
FAKTQYPDVFA [CRX_Y63_YF] 0.953
TISPFYCQSLF [CRYAA_Y48_R49C_YF] 0.846
TISPFYRQSLF [CRYAA_Y48_YF] 0.683
TWSRSYRSDRL [CRYBB1_Y131_S129R] 0.266
FQVRRYDCDCD [CRYGS_Y21_G18V] 0.777
RRERDYTNLPS [CSF1R_Y923] 0.376
RRDRDYTNLPS [CSF1R_Y923_E920D] 0.308
LQPNNYQFCGG [CSF1R_Y969] 0.777
LQPNNCQFCGG [CSF1R_Y969_Y969C] 1.03
TLNHQYDYTFD [CSNK1A1_Y292] 0.811
TLNHQYDYTFH [CSNK1A1_Y292_D297H] 0.774

Target: SHP2 N-SH2 domain T42A
Test: as above
Conditions: peptide library: pTyr-Var

Enrichment score, inactive:
LENSTYQFIRV [CRB1_Y760_YF] 1.07
LRTAVYHEILI [CREBBP_Y1450] 2.87
FSGKAYADEER [CRIM1_Y826] 0.612
LFQAKYQIRYR [CRLF1_Y272] 1.34
LFQAKYQIRFR [CRLF1_Y272_YF] 1.31
FAKTQYPDVYA [CRX_Y63] 0.785
FAKTQYPDIYA [CRX_Y63_V66I] 1.08
FAKTQYPDVFA [CRX_Y63_YF] 0.69
TISPFYCQSLF [CRYAA_Y48_R49C_YF] 0.774
TISPFYRQSLF [CRYAA_Y48_YF] 0.62
TWSRSYRSDRL [CRYBB1_Y131_S129R] 0.328
FQVRRYDCDCD [CRYGS_Y21_G18V] 0.644
RRERDYTNLPS [CSF1R_Y923] 0.233
RRDRDYTNLPS [CSF1R_Y923_E920D] 0.366
LQPNNYQFCGG [CSF1R_Y969] 0.778
LQPNNCQFCGG [CSF1R_Y969_Y969C] 0.828
TLNHQYDYTFD [CSNK1A1_Y292] 0.966
TLNHQYDYTFH [CSNK1A1_Y292_D297H] 0.76

Target: SHP2 N-SH2 domain T52S
Test: as above
Conditions: peptide library: pTyr-Var

Enrichment score, inactive:
LENSTYQFIRV [CRB1_Y760_YF] 1.05
LRTAVYHEILI [CREBBP_Y1450] 1.97
FSGKAYADEER [CRIM1_Y826] 0.671
LFQAKYQIRYR [CRLF1_Y272] 1.46
LFQAKYQIRFR [CRLF1_Y272_YF] 1.37
FAKTQYPDVYA [CRX_Y63] 0.972
FAKTQYPDIYA [CRX_Y63_V66I] 1.12
FAKTQYPDVFA [CRX_Y63_YF] 0.694
TISPFYCQSLF [CRYAA_Y48_R49C_YF] 0.673
TISPFYRQSLF [CRYAA_Y48_YF] 0.542
TWSRSYRSDRL [CRYBB1_Y131_S129R] 0.383
FQVRRYDCDCD [CRYGS_Y21_G18V] 0.943
RRERDYTNLPS [CSF1R_Y923] 0.25
RRDRDYTNLPS [CSF1R_Y923_E920D] 0.376
LQPNNYQFCGG [CSF1R_Y969] 0.681
LQPNNCQFCGG [CSF1R_Y969_Y969C] 0.753
TLNHQYDYTFD [CSNK1A1_Y292] 0.753
TLNHQYDYTFH [CSNK1A1_Y292_D297H] 0.694

Target: SHP2 N-SH2 domain wild-type
Test: as above
Conditions: peptide library: pTyr-Var

Enrichment score, inactive:
LENSTYQFIRV [CRB1_Y760_YF] 0.872
LRTAVYHEILI [CREBBP_Y1450] 1.8
FSGKAYADEER [CRIM1_Y826] 0.796
LFQAKYQIRYR [CRLF1_Y272] 1.24
LFQAKYQIRFR [CRLF1_Y272_YF] 1.09
FAKTQYPDVYA [CRX_Y63] 0.591
FAKTQYPDIYA [CRX_Y63_V66I] 1.06
FAKTQYPDVFA [CRX_Y63_YF] 0.732
TISPFYCQSLF [CRYAA_Y48_R49C_YF] 1.18
TISPFYRQSLF [CRYAA_Y48_YF] 0.932
TWSRSYRSDRL [CRYBB1_Y131_S129R] 0.374
FQVRRYDCDCD [CRYGS_Y21_G18V] 0.787
RRERDYTNLPS [CSF1R_Y923] 0.236
RRDRDYTNLPS [CSF1R_Y923_E920D] 0.564
LQPNNYQFCGG [CSF1R_Y969] 0.902
LQPNNCQFCGG [CSF1R_Y969_Y969C] 0.861
TLNHQYDYTFD [CSNK1A1_Y292] 0.766
TLNHQYDYTFH [CSNK1A1_Y292_D297H] 0.781

— the supplement of paper PMC10369915
